The campaign covered roughly 150,000 compounds. About 540 (0.36%) showed an effect of 50% or more. The list shows a part of the results.

In the assay the test system is Plasmodium falciparum. Nature of the assay: Primary screen in NF54 nanoGlo assay, in single point, at 2uM, 72h; a lower Z score goes with more inhibition. Format: functional, Erythrocyte. As to conditions: timepoint 72 hour.
Take `Cc1ccc([C@@H](O)CNC(=O)C2(N3CCCC3)CCCCC2)cc1`: the “% Inhibition” value is listed as -2% and the Z score is on record as 0.26.
Take `O=C(COc1ccc(F)cc1)Nc1cccc(-c2ccc3ccccc3n2)c1`: the “% Inhibition” value was 12% and the Z score was -1.41.
For `CCN(C(=O)c1cc2c(s1)CCCCCC2)[C@H]1CCS(=O)(=O)C1` the same measures were 8% and -1.57.
For `CCCCn1nnnc1CN(C)[C@H]1CCCN(Cc2noc(C)n2)C1` the same measures were -11% and 1.53.
`Cc1ccc(S(N)(=O)=O)cc1NC[C@@H]1CC=CCC1`: the “% Inhibition” value was determined as 10% and the Z score is recorded as -0.97.
`CN1CCCN(CCCCC2CCOCC2)CC1=O`: the “% Inhibition” value came out at 3% and the Z score is listed as -0.38.
For `Cc1nc(C(C)C)sc1C(=O)N(C)C[C@H]1COc2ccccc2O1`, the “% Inhibition” value is listed as -8% and the Z score stood at 0.89.
For the compound `Cc1cc([C@H]2C[C@H]3CC[C@@H](C2)N3C(=O)Cn2ccnc2)ccc1F`, the “% Inhibition” value is on record as -15% and the Z score was found to be 2.12.
In the case of `Cc1nc(C(=O)N(C)Cc2cc(-c3cccs3)n[nH]2)cs1`, the “% Inhibition” value is -4% and the Z score stood at 0.85.
Consider `O[C@H](c1cncc(Br)c1)C(F)(F)F`, for which the “% Inhibition” value stood at 1% and the Z score was -0.14.
For `OCCn1ncnc1-c1ccc(CN2CCCCC2)cc1` the same measures were 14% and -1.87.
Take `Cc1cc(C)n(C[C@@H](C#N)CCC#N)n1`: the “% Inhibition” value is listed as 1% and the Z score is reported as -0.26.
`COCCNC(=O)C1CCC(c2cccc(C)c2)N(C(=O)NC(C)C)C1` (stereo not given): the “% Inhibition” value is -11% and the Z score is recorded as 1.5.
Turning to `CN1CCCN(C(=O)CCc2ccc3ccn(C)c3c2)CC1`, the “% Inhibition” value is recorded as -10% and the Z score stood at 1.13.
`Cc1ccc(-c2c(C)nn3c2NC(=O)CCC3=O)cc1S(=O)(=O)NCc1ccccn1`: the “% Inhibition” value worked out at 0% and the Z score worked out at 0.01.
For `CC(=O)N1CCC(N2CCC[C@H]2c2nc(-c3ccc(F)cn3)no2)CC1` the same measures were -7% and 1.35.
For `O=C(c1cnccn1)N1CC=C(c2cccc3ccccc23)CC1` the same measures were 3% and -0.38.
For `COc1ccc(C2c3[nH]c4ccccc4c3CC3C(=O)N(c4ccccc4)C(=O)N32)cc1` (stereo not given) the same measures were -3% and 0.44.
`Cc1nnsc1CN(C)C[C@H](O)CO`: the “% Inhibition” value turned out to be 1% and the Z score is -0.21.
In the case of `CCCc1c([C@H]2CCOC(C)(C)C2)nc(N)c(C#N)c1-c1c[nH]cn1`, the “% Inhibition” value is listed as -14% and the Z score is 1.77.
For `Cc1cc(C)n(-c2ccnc(NCc3cccc(Br)c3)n2)n1`, the “% Inhibition” value is -7% and the Z score was determined as 0.75.
`Cn1c(=O)c2c(-c3ccc(Br)cc3)n(-c3ccccn3)cc2n(C)c1=O`: the “% Inhibition” value was -5% and the Z score is on record as 0.83.
As to `Cc1n[nH]c(C)c1-c1cc(C2CC2)c(C#N)c(N)n1`, the “% Inhibition” value is -13% and the Z score is listed as 1.77.
On to `Cc1ccc(C(=O)N2CCN(S(=O)(=O)c3cc4c(cc3Cl)NC(=O)[C@H](C)O4)CC2)cc1`, for which the “% Inhibition” value is recorded as -12% and the Z score is 1.17.
As to `Cc1cc(C(=O)Nc2cn(CC(C)C)nc2C(F)F)cc(O)n1`, the “% Inhibition” value is -3% and the Z score is on record as 0.5.
For `O=C(O)[C@H]1CN(C(=O)CCC2CCOC2)C[C@@H]1c1ccc(Br)cc1` (stereo not given in full) the same measures were 20% and -2.58.
For `OCCn1nc(Cc2cccnc2)nc1-c1ccc2c(c1)OCCO2` the same measures were 0% and 0.
Take `COCCc1nnc(NC(=O)c2snnc2C)o1`: the “% Inhibition” value was -3% and the Z score came to 0.45.
`COCCN1CC2(CCC1=O)CCN(Cc1cnc(C(C)C)nc1)CC2`: the “% Inhibition” value came out at 0% and the Z score stood at 0.01.
For `CCCCN1CCn2nc(CNc3cc(C)nc(C(C)C)n3)cc2C1`, the “% Inhibition” value was 4% and the Z score was -0.72.
Regarding `CN(C)C[C@H]1CN(CC(=O)NCCC2=CCCCC2)CCO1`, the “% Inhibition” value was -6% and the Z score is reported as 0.63.
As to `CC(=O)N1CCC(NC(=O)N2CC[C@@H](O)[C@H]2c2ccc(Cl)cc2)CC1`, the “% Inhibition” value was -14% and the Z score amounted to 1.57.
For `CN(CCc1ccccn1)Cc1nnc2n1CCCCC2` the same measures were -25% and 3.15.
Consider `CN(C)c1nc2c(c(NCCc3nncn3C)n1)CCCC2`, for which the “% Inhibition” value is reported as -9% and the Z score amounted to 0.87.
On to `O=C(c1cccc(C(F)F)c1)N1CCOC2(CCC2)C1`, for which the “% Inhibition” value is reported as -11% and the Z score is given as 1.52.
As to `CCc1nc(C)c(CNS(=O)(=O)N2CCN(C)CC2)s1`, the “% Inhibition” value was -14% and the Z score is 2.35.
`Cc1nc(CN(C)C(=O)c2ccc3c(c2)CCO3)cs1`: the “% Inhibition” value is given as -8% and the Z score was 1.48.
For `O=C(NC1CCCC1)c1cc2n(n1)C[C@@H](c1ccc3c(c1)OCO3)OC2` the same measures were 4% and -0.73.
Turning to `CC[C@H](NS(=O)(=O)c1sc2c(c1C(=O)O)CCNC2)c1cccnc1`, the “% Inhibition” value is listed as -10% and the Z score came out at 1.15.
For `CCNC(=O)N1CCC(n2cc(CN3CCC[C@H]3c3nccs3)nn2)CC1` the same measures were -3% and 0.39.
Consider `CC1(C)CCc2nnc(-c3cccc(S(=O)(=O)N4CCCC4)c3)n2C1`, for which the “% Inhibition” value is listed as -2% and the Z score stood at 0.3.
For `CCCCn1nnnc1Cn1ccc(C)cc1=O` the same measures were -5% and 0.91.
As for `Cc1nc(CN2C[C@H](c3ccccc3)C(C)(C)C2)co1`, the “% Inhibition” value is given as -9% and the Z score stood at 1.48.
In the case of `O=C(c1cnccn1)N1C[C@H]2CC[C@@H](C1)N(C(=O)c1ccc3[nH]nnc3c1)C2`, the “% Inhibition” value stood at 1% and the Z score is -0.07.
For `CC(C)(CNc1ccc(C(=O)N2CCc3ccccc32)cn1)NS(C)(=O)=O` the same measures were -14% and 1.89.
As for `COc1ccc(NC(=O)Cn2c(=O)c3cc(C4CC4)nn3c3ncccc32)cc1Cl`, the “% Inhibition” value is given as -21% and the Z score turned out to be 2.22.
In the case of `CC1CCC(O)(CN(C)C2CCCC2S(C)(=O)=O)CC1` (stereo not given), the “% Inhibition” value is given as 0% and the Z score is 0.01.
Turning to `Cc1cnc2c(cnn2CC(=O)NCc2cccc(N3CC=CC3)c2)c1`, the “% Inhibition” value is -17% and the Z score worked out at 1.78.
For `COC1(c2noc([C@@H](c3ccccc3)N(C)C)n2)CCOCC1`, the “% Inhibition” value is given as -15% and the Z score amounted to 1.98.
With `CC[C@@H](CC#N)NC(=O)Nc1cc(C#N)ccc1Cl`, the “% Inhibition” value was -11% and the Z score is 0.92.
Turning to `CN(CCN(C)C1CC1)C(=O)C[C@H](c1ccc(O)cc1)C1CC1`, the “% Inhibition” value is on record as -6% and the Z score was found to be 1.1.
Take `COc1ccc(C(=O)NC(C)(C)CO)cc1`: the “% Inhibition” value is -5% and the Z score was determined as 0.71.
For `Cc1nnc2n1[C@@H](C)CN(C(=O)c1cncc(Cl)c1)C2` the same measures were -14% and 1.23.
For `CN(Cc1cn2c(n1)CCCC2)C(=O)c1cnn2ncccc12` the same measures were -41% and 4.82.
On to `COCCCN(Cc1ccc(OC)cc1)C[C@H](O)COCC(C)C`, for which the “% Inhibition” value was 3% and the Z score is given as -0.47.

What is called % Inhibition is the relative decrease from the control value, in per cent.
